# From PubChem BioAssay (NCATS)
# Inconclusive results, whose numbers are uncertain, are shown with a selection of clear calls. For some of these results: Potencies of inconclusive entries are left out as doubtful fits. The source made the active and inactive calls. Unless noted, calls come from the whole dose curve; as a rule, active = well fitted curve in the direction sought with a large enough effect; inconclusive = small, poorly fitted or top-dose-only effect, or another doubt; inactive = no such curve, though single readings can be large; an effect the other way counts as inactive or inconclusive.
# What was measured:
# [1] = P-glycoprotein substrates identified in KB-3-1 adenocarcinoma cell line, qHTS therapeutic library screen (AID 1346986); note: nearly all actives have a fitted effect of over 60% in size;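 note: potency is the fitted concentration of half-maximal effect; potency is for cytotoxicity meaning loss of cell viability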
# In short: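 KB-3-1 parental cells and P-gp-overexpressing KB-8-5-11 (colchicine omitted during assay) plated at 500 cells/well, dosed in dose-response, incubated 72 h at 37 degree C. CellTiter-Glo luminescence read; KB-8-5-11 also tested with tariquidar.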
# [2] = P-glycoprotein substrates identified in KB-8-5-11 adenocarcinoma cell line, qHTS therapeutic library screen (AID 1346987); details: activity change, negative = cytotoxicity: at 44.5 µM (top of the series); note: nearly all actives have a fitted effect of over 65% in size; note: potency is the fitted concentration of half-maximal effect; for activity change, negative = cytotoxicity: % is set by controls: 0 for no effect and ±100 for the full control effect
# In short: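 KB-8-5-11: colchicine-selected sub-line of KB-3-1 over-expressing P-gp; assay medium lacked colchicine. 72 h drug exposure at 37 degree C, CellTiter-Glo.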
# [3] = qHTS to identify inhibitors of the type 1 interferon - major histocompatibility complex class I in skeletal muscle: primary screen against the NCATS Mechanism Interrogation Plate v5.0 (MIPE) Libary (AID 1347411); details: iHSKM cells + IFN-b, HiBiT-tagged MHC-I luminescence, 24 h; activity change, negative = inhibition: at 45.8 µM (top of the series) unless noted; note: nearly all actives have a fitted effect of over 65% in size; note: potency is the fitted concentration of half-maximal effect;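 for activity change, negative = inhibition: plate controls were vehicle for no effect and reference inhibitor for full effect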
# In short: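 Immortalized human C25cl48 myoblasts with HiBit knocked into endogenous HLA-B*08:01 were stimulated with 4.0 ng/ml IFN-beta and exposed to compounds (11-point 1:3 titration, top 46 uM final) for 24 hrs at 37 C; HiBiT lytic luminescence measured.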
# [4] = AP1 Signaling Pathway (AID 357; active = well fitted curve in either direction with a large enough effect, not every such curve was filed as active; inconclusive = small, poorly fitted or top-dose-only effect, or another doubt;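 note: ME-180 reporter cells stimulated with EGF at its EC50 level; top concentration of the series differs between compounds; % is set by controls: 0 for no effect and ±100 for the full control effect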); details: ME-180 AP-1-bla reporter, EGF-induced, beta-lactamase ratio, 5 h; at 38 µM (top of the series)
# In short: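 Titration-series screen for positive or negative modulators of EC50 EGF-induced signaling in ME-180 cells carrying an AP-1-driven beta-lactamase reporter. After 5 hours at 37 degrees Celsius, CCF4 460nm/530nm emission ratio gave %Activity; AC50 values derived.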
# [5] = NFAT Signaling Pathway (AID 444; active = well fitted curve in either direction with a large enough effect, not every such curve was filed as active; inconclusive = small, poorly fitted or top-dose-only effect, or another doubt;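 note: carbachol stimulus at about its EC50 of 1 µM final; % is set by controls: 0 for no effect and ±100 for the full control effect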); details: Jurkat NFAT-bla M1, carbachol, beta-lactamase ratio, 5 h; at 38 µM (top of the series)
# In short: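 Jurkat cells carrying an NFAT-driven β-lactamase reporter and co-transfected muscarinic M1 receptor were treated with compound plus carbachol (1 uM final, an EC50 level) for 5 h at 37 °C. CCF4 loading followed for 1 h at RT; 460/530 nm ratio gave %activity.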
# [6] = qHTS Assay for Identification of Small Molecule Antagonists for NFkB Signaling Pathway (AID 895; active = well fitted inhibition curve with a large enough effect in the signal ratio, with a control signal flat, not every such curve was filed as active; inconclusive = small, poorly fitted or top-dose-only effect, or effect the other way, or a change in a side signal; the % refers to the signal ratio; note: potency is the fitted concentration of half-maximal effect); details: NFkB beta-lactamase reporter cells, FRET ratio 460/530, stimulated with 10 pM TNF alpha; activity change, negative = inhibition: at 38.3 µM (top of the series)
# In short: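 NFkB-bla ME-180 cervical carcinoma cells with beta-lactamase reporter under NFkB response element; compounds added, then TNF alpha at 10 pM final (EC50), 5 h at 37 C. LiveBLAzer substrate 2 h, room temperature; emission 460/530 nm at 405 nm excitation.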
# [7] = qHTS Assay for Identification of Small Molecule Agonists for Hypoxia Response Element Signaling Pathway (AID 914; active = well fitted activation curve with a large enough effect in the signal ratio, with a control signal flat, not every such curve was filed as active; inconclusive = small, poorly fitted or top-dose-only effect, or effect the other way, or a change in a side signal; the % refers to the signal ratio; note: potency is the fitted concentration of half-maximal effect); details: ME-180 (cervical carcinoma) HRE-bla reporter, beta-lactamase ratio, CoCl2, 17 h; activation: active compounds read high
# In short: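 HRE-bla ME-180 cells with beta-lactamase reporter under hypoxia response element, compounds with EC50 CoCl2 for 17 hours at 37 C. CCF4 substrate, 460nm/530nm emission ratio gave %Activity; AC50 from titration series.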
# [8] = qHTS Assay for Identification of Small Molecule Antagonists for Thrombopoietin (TPO) Signaling Pathway (AID 918); details: TPO-dependent cell signaling reporter, antagonist mode; activity change, negative = inhibition: at 38.5 µM (top of the series); note: nearly all actives have a fitted effect of over 60% in size
# In short: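 Murine Ba/F3 cells stably expressing human TPO receptor and a Glycoprotein IIb promoter–luciferase reporter were IL-3-starved overnight, treated with compounds plus TPO (26 pM final, its EC50) for 24 hrs at 37 C, then read by luminescence.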
# [9] = biological target: Muscarinic acetylcholine receptor M1 (Rattus norvegicus) (UniProt P08482); experiment: qHTS Assay for Antagonists of Acetylcholine Muscarinic M1 Receptor: Kinetic Measurement of Intracellular Calcium Response (AID 943); note: potency is the fitted concentration of half-maximal effect; nearly all actives have a fitted effect of over 75% in size
# Sequence of UniProt P08482 (P08482 whole entry, looked up): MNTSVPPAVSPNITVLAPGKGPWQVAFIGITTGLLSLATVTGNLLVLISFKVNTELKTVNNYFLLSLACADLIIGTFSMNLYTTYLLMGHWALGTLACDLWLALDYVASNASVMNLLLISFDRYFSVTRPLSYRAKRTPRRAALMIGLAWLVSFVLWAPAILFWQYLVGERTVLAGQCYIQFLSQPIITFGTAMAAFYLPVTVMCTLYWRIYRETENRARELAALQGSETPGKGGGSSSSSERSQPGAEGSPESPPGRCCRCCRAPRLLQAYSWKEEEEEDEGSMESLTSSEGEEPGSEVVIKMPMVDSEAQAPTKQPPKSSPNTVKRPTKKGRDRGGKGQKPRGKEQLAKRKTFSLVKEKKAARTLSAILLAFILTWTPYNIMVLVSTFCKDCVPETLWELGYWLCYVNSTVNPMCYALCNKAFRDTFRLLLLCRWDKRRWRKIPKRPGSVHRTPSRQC
# In short: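 CHO cells stably expressing rat M1 were loaded with no-wash Fluo-4 dye for 1 h at 37C, pre-incubated 10 min with compound, then challenged with EC80 carbachol (100 nM final); kinetic calcium read 4 min, peak/basal ratio.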
# [10] = biological target: Pyruvate kinase (Leishmania mexicana) (UniProt Q27686); experiment: qHTS Validation Assay for Activators of Leishmania Mexicana Pyruvate Kinase (AID 959)
# Sequence of UniProt Q27686 (Q27686 whole entry, looked up): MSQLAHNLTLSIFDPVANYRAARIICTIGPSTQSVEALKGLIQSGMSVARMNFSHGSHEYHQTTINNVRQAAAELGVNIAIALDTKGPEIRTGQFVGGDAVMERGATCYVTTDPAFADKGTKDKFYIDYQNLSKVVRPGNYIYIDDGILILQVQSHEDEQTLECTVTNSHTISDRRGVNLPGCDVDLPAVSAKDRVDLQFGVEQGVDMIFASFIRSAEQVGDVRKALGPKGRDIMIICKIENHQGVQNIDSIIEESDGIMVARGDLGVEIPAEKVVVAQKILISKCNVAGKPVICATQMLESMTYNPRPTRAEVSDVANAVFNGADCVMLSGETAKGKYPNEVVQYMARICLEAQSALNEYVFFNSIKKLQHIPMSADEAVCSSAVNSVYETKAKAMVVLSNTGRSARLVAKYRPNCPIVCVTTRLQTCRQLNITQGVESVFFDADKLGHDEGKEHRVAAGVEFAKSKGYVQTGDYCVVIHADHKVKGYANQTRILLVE
# In short: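 Eight-point qHTS titrations in triplicate, data normalized to DMSO neutral control. Reaction: 0.2 nM LmPYK E451W mutant, 0.5 mM PEP, 0.1 mM ADP, 7 mM MgCl2, pH 7.2, one hour at room temperature; luminescent ATP detection.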
# [11] = qHTS Assay for Lipid Storage Modulators (AID 1519; calls by dose curve; note: % is set by controls: 0 for no effect and ±100 for the full control effect); details: Drosophila S3 cells, BODIPY lipid droplet/cell ratio, laser cytometry, cells loaded with oleic acid; activity change, negative = inhibition: at 57.5 µM (top of the series) unless noted
# In short: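 Cells seeded at 5,000 per well were treated with compounds over a concentration series and loaded with oleic acid (400 uM, as added). Lipid droplet fluorescence (488 nm excitation, 500-530 nm channel) was read by laser-scanning cytometry and normalized to 20 uM Triacsin C.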
# [12] = biological target: Endonuclease 4 (Escherichia coli (strain K12)) (UniProt P0A6C1); experiment: Counterscreen for APE1 Inhibitors: qHTS Validation Assay for Inhibitors of Endonuclease IV (AID 1708); note: potency is the fitted concentration of half-maximal effect
# In short: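 2 nM enzyme was preincubated with compounds for 15 min at room temperature in 50 mM Tris-HCl pH 7.5, 50 mM NaCl, 2 mM MgCl2, 1 mM DTT, 0.01% Tween-20. 50 nM THF-abasic TAMRA/BHQ-2 duplex substrate started the reaction.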
# [13] = qHTS for differential inhibitors of proliferation of Plasmodium falciparum line GB4 (AID 1816); details: Potency: Plasmodium falciparum GB4 proliferation inhibition;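 note: potency is the fitted concentration of half-maximal effect; parasite growth measured after 72 h incubation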
# [14] = qHTS for differential inhibitors of proliferation of Plasmodium falciparum line 3D7 (AID 1876); note: potency is the fitted concentration of half-maximal effect
# [15] = qHTS for differential inhibitors of proliferation of Plasmodium falciparum line HB3 (AID 1886); details: Potency: Plasmodium falciparum HB3 proliferation inhibition;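 note: potency is the fitted concentration of half-maximal effect; parasites grown with compound for 72 h before SYBR Green readout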
# [16] = biological target: Ferritin light chain (Equus caballus) (UniProt P02791); experiment: qHTS Validation Assay for Identification of Novel General Anesthetics (AID 2323); note: potency is the fitted concentration of half-maximal effect
# Sequence of UniProt P02791 (P02791 whole entry, looked up): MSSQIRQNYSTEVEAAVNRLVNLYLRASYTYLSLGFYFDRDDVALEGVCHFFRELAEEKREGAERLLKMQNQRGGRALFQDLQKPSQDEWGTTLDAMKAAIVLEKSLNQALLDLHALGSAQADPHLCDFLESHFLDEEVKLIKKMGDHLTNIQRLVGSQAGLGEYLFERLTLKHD
# In short: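 Horse-spleen apoferritin (10 uM) in PBS with 50% saturated 1-aminoanthracene; compounds pin-transferred, 10 min at room temperature. Fluorescence read at 380/535 nm, normalized to free 1-AMA and 1-AMA/apoferritin values; four-parameter Hill fit.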
# [17] = biological target: ATP-dependent DNA helicase Q1 (Homo sapiens) (UniProt P46063); experiment: qHTS Validation Assay for Inhibitors of RecQ-Like Dna Helicase 1 (RECQ1) (AID 2353); note: potency is the fitted concentration of half-maximal effect
# Sequence of UniProt P46063 (P46063 whole entry, looked up): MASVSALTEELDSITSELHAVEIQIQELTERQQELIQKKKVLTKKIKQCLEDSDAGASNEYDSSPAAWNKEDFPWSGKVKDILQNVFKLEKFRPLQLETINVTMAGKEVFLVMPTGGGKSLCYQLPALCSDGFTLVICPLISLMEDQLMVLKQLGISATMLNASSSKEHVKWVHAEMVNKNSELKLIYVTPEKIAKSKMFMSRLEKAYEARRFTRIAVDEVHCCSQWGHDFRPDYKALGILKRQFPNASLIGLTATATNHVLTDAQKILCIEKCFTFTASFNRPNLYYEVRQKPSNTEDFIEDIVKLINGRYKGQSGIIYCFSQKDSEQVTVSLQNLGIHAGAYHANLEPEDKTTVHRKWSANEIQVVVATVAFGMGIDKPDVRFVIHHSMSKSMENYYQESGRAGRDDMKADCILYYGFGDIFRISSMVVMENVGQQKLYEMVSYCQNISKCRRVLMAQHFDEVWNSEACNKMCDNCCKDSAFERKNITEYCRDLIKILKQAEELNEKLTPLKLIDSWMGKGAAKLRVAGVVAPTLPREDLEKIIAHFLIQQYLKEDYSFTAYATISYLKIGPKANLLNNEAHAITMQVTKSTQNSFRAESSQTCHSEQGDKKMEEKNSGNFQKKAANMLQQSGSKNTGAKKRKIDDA
# In short: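 50 nM RECQ1T1 preincubated 15 min with compound in Tris pH 8.0 buffer with MgCl2, DTT, Tween-20 and 2.5 ug/ml poly(dI-dC); started with 200 nM TAMRA/BHQ-2 forked duplex and 2 mM ATP. Unwinding read as fluorescence (525/598 nm), two reads 2 h apart.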
# [18] = biological target: RecQ-like DNA helicase BLM (Homo sapiens) (UniProt P54132); experiment: qHTS Validation Assay for Inhibitors of Bloom's syndrome helicase (BLM) (AID 2364); note: potency is the fitted concentration of half-maximal effect
# Sequence of UniProt P54132 (P54132 whole entry, looked up): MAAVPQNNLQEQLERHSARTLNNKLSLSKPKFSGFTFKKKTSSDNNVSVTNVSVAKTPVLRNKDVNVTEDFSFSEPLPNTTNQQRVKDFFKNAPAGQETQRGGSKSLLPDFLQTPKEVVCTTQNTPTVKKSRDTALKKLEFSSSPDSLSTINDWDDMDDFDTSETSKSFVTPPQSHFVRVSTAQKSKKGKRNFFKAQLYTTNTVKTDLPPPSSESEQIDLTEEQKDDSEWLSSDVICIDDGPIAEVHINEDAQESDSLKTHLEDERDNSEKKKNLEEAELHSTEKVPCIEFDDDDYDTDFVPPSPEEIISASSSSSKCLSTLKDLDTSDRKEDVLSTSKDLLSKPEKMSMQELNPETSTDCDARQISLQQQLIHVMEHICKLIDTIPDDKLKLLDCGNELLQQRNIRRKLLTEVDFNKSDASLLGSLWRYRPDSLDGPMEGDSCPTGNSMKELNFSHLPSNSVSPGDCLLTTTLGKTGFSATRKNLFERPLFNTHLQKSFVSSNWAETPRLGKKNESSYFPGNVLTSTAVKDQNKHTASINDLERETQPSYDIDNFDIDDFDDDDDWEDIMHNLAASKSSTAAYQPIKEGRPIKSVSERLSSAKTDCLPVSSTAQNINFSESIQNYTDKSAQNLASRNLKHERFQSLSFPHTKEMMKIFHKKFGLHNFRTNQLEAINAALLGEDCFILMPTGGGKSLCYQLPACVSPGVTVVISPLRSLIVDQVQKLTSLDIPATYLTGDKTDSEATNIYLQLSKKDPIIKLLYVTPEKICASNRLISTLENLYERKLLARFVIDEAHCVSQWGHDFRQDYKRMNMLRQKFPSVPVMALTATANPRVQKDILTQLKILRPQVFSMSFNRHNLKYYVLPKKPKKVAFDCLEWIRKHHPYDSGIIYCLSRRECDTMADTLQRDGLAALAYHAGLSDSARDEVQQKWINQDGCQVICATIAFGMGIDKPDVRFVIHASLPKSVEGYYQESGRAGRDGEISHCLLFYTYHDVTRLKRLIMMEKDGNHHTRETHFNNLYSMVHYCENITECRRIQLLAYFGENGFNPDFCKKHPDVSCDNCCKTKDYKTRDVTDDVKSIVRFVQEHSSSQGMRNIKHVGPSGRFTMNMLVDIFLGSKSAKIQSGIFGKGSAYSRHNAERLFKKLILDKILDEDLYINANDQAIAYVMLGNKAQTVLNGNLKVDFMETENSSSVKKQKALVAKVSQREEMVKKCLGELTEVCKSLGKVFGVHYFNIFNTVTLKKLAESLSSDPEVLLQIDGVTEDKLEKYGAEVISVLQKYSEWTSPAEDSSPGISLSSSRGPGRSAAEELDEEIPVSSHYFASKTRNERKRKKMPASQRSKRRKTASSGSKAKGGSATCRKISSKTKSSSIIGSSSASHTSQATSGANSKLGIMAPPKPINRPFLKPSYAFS
# In short: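 BLM 50 nM in 25 mM Tris-HCl pH 8.0, 5 mM NaCl, 2 mM MgCl2, 1 mM DTT, 0.01% Tween-20, 2.5 ug/ml poly(dI-dC); 15 min cpd preinc, RT. Start: 200 nM forked DNA + 2 mM ATP (final). TAMRA read, 2 reads 2 h apart.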
# [19] = Validation screen for small molecules that induce DNA re-replication in MCF 10A normal breast cells (AID 463097); note: potency is the fitted concentration of half-maximal effect; nearly all actives have a fitted effect of over 60% in size
# In short: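 MCF 10A cells exposed to compound 48 hr at 37 C, 5% CO2, then Hoechst-stained 40 min. Laser-scanning imaging of nuclear DNA content (405 nm ex, 500-530 nm em); re-replication scored as rise in nuclei with elevated fluorescence intensity.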
# [20] = Quantitative high throughput screen for delayed death inhibitors of the malarial parasite plastid, 96 hour incubation (AID 488745); note: potency is the fitted concentration of half-maximal effect; nearly all actives have a fitted effect of over 70% in size
# In short: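 P. falciparum carrying an integrated firefly luciferase reporter, grown in erythrocytes (2% hematocrit, 0.1% parasitemia final) in RPMI 1640/0.5% Albumax, was exposed to compound for 96 h (two generations) at 37 C, 5% CO2. Luminescence decrease indicated growth inhibition.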
# [21] = Quantitative high throughput screen for delayed death inhibitors of the malarial parasite plastid, 48 hour incubation (AID 488752); note: potency is the fitted concentration of half-maximal effect; nearly all actives have a fitted effect of over 65% in size
# In short: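 Erythrocytes infected with P. falciparum carrying an integrated firefly luciferase reporter (2% hematocrit, 0.1% parasitemia final) were exposed to compounds in RPMI 1640/0.5% Albumax for 48 h at 37 C, 5% CO2. Growth inhibition was scored as reduced luminescence.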
# [22] = biological target: Phospholipid hydroperoxide glutathione peroxidase GPX4 (Homo sapiens) (UniProt P36969); experiment: Primary qHTS Assay for Inhibitors of Recombinant Selenoprotein Glutathione Peroxidase 4 (GPX4) (AID 1845192); details: activity change, negative = inhibition: at 50 µM (top of the series) unless noted; note: potency is the fitted concentration of half-maximal effect; nearly all actives have a fitted effect of over 65% in size
# Sequence of UniProt P36969 (P36969 whole entry, looked up): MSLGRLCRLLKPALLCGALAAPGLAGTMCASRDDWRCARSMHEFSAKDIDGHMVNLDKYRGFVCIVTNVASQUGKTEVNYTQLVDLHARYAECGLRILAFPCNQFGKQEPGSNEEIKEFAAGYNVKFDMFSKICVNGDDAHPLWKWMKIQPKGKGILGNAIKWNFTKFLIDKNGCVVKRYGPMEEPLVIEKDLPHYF
# In short: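 GR-coupled readout: 100 nM GR, 1 mM GSH, 0.5 mM NADPH; NADPH fluorescence (ex 340/em 450 nm) read at t=0 and after 15 min RT. GPX4 200 nM, preincubated 30 min with compound; substrate 0.5 mM CHP.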
# [23] = Primary qHTS for small molecule stabilizers of the endoplasmic reticulum resident proteome: Secreted ER Calcium Modulated Protein (SERCaMP) assay (AID 1508630); details: SH-SY5Y GLuc-SERCaMP (Gaussia luciferase released on ER calcium loss) secretion, thapsigargin, luminescence; activity change, negative = inhibition: at 38.4 µM (top of the series) unless noted; note: potency is the fitted concentration of half-maximal effect
# In short: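 GLuc-SERCaMP-expressing SH-SY5Y cells, pretreated 16 h with compound, are challenged with thapsigargin to empty ER calcium stores; after 4 h, coelenterazine is added directly to the medium and luminescence is imaged.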
# [24] = Primary qHTS for inhibitors of nuclear receptor binding SET domain protein 2 (NSD2) in an isogenic RCH-ACV NSD2 p.E1099K mutant (9B) (AID 1645876); details: activity change, negative = viability loss: at 44.9 µM (top of the series) unless noted; note: potency is the fitted concentration of half-maximal effect; nearly all actives have a fitted effect of over 70% in size
# [25] = Primary qHTS for inhibitors of nuclear receptor binding SET domain protein 2 (NSD2) in an RCH-ACV wild type WT cells (2C) (AID 1645877); details: activity change, negative = cell killing: at 44.9 µM (top of the series) unless noted; note: potency is the fitted concentration of half-maximal effect; nearly all actives have a fitted effect of over 70% in size
# Tags give direction and shape of the fitted curve or compound fluorescence and quenching.
smiles,measurement,setting,value
CN1CCN(Cc2ccc(Nc3ncc(Cl)c(Nc4ccccc4S(=O)(=O)N(C)C)n3)cc2)CC1,Potency,[1],active: 0.0596 µM
same,Potency,[2],active: 0.0668 µM
same,Potency,[3],active: 0.151 µM
CC(C)=CCC/C(C)=C/CC/C(C)=C/CSc1ccccc1C(=O)O,"activity change, negative = inhibition",[4],inactive: 14.1%
same,"activity change, negative = inhibition",[5],inconclusive: -90.5% [inhibitor]
same,Potency,[6],"inconclusive [inhibitor, full curve, poor fit]"
same,Potency,[7],"inconclusive [inhibitor, partial curve, poor fit]"
same,"activity change, negative = inhibition",[8],inconclusive: -16.1% [phenotype inactive]
same,Potency,[9],"inconclusive [inhibitor, full curve, poor fit]"
same,Potency,[10],"inconclusive [activator, single point]"
same,"activity change, negative = inhibition",[11],inconclusive: -0.548%
same,Potency,[12],"inconclusive [inhibitor, partial curve]"
same,Potency,[13],"inconclusive [inhibitor, partial curve]"
same,Potency,[14],"inconclusive [inhibitor, single point]"
same,Potency,[15],"inconclusive [inhibitor, partial curve]"
same,Potency,[16],"inconclusive [inhibitor, partial curve]"
same,Potency,[17],"inconclusive [inhibitor, single point]"
same,Potency,[18],active: 31.6 µM
same,Potency,[19],active: 11.2 µM
same,Potency,[20],"inconclusive [inhibitor, single point]"
same,Potency,[21],"inconclusive [inhibitor, single point]"
same,Potency,[1],inactive
same,Potency,[2],inactive
same,Potency,[3],inactive
same,Potency,[22],active: 16.1 µM
O=C1NC(=O)c2cc(Nc3ccc(F)cc3)c(Nc3ccc(F)cc3)cc21,Potency,[1],"inconclusive [inhibitor, single point]"
same,Potency,[2],active: 14.6 µM
same,Potency,[23],"inconclusive [inhibitor, single point]"
same,Potency,[24],"inconclusive [inhibitor, single point]"
same,Potency,[25],"inconclusive [inhibitor, single point]"
CN(C(=O)c1cn2c(-c3ccc(C(F)(F)F)cc3)cnc2cn1)c1ccc(C#N)cc1,Potency,[1],"inconclusive [inhibitor, single point]"
same,Potency,[2],"inconclusive [inhibitor, partial curve]"
same,Potency,[24],"inconclusive [inhibitor, partial curve]"
same,Potency,[25],"inconclusive [inhibitor, partial curve]"
